Test results: paper PMC12624062
No constants are given. Whether binding was seen depends on the method and setting. Binding seen in cells or lysates may run through a third protein.

Target: T1, PNLDC1 (mouse), B2RXZ1
T1 chain: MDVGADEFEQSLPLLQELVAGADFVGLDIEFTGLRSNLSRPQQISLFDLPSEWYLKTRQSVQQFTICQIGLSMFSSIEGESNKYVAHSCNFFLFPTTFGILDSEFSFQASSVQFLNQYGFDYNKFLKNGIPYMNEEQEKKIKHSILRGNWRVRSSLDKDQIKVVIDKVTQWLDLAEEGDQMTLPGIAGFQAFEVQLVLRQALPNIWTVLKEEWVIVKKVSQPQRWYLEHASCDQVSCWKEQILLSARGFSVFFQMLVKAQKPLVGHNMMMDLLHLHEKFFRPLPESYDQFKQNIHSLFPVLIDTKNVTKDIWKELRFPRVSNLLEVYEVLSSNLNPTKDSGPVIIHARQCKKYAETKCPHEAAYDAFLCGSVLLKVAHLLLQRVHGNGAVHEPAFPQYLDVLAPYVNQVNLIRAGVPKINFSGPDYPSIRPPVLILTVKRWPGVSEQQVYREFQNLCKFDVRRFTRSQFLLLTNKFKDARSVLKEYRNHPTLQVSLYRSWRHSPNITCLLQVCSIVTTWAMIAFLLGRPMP
Assay: co-IP; 293T cells transiently transfected with tagged mouse proteins; lysis in 150 mM NaCl, 50 mM Tris-HCl pH 7.4, 1% Triton X-100, 1 mM EDTA; Protein A/G agarose beads and antibodies overnight at 4 °C; washes with 300 mM NaCl; Western blot for Flag, HA, GFP; some panels with the methyltransferase inhibitor MTA
Conditions: remark: other sources report otherwise

B1: PIWIL1, Q9JMB7 1-862 (protein)
chain: MTGRARARARGRARGQETVQHVGAAASQQPGYIPPRPQQSPTEGDLVGRGRQRGMVVGATSKSQELQISAGFQELSLAERGGRRRDFHDLGVNTRQNLDHVKESKTGSSGIIVKLSTNHFRLTSRPQWALYQYHIDYNPLMEARRLRSALLFQHEDLIGRCHAFDGTILFLPKRLQHKVTEVFSQTRNGEHVRITITLTNELPPTSPTCLQFYNIIFRRLLKIMNLQQIGRNYYNPSDPIDIPNHRLVIWPGFTTSILQYENNIMLCTDVSHKVLRSETVLDFMFNLYQQTEEHKFQEQVSKELIGLIVLTKYNNKTYRVDDIDWDQNPKSTFKKADGSEVSFLEYYRKQYNQEITDLKQPVLVSQPKRRRGPGGTLPGPAMLIPELCYLTGLTDKMRNDFNVMKDLAVHTRLTPEQRQREVGRLIDYIHKDDNVQRELRDWGLSFDSNLLSFSGRILQSEKIHQGGKTFDYNPQFADWSKETRGAPLISVKPLDNWLLIYTRRNYEAANSLIQNLFKVTPAMGIQMKKAIMIEVDDRTEAYLRALQQKVTSDTQIVVCLLSSNRKDKYDAIKKYLCTDCPTPSQCVVARTLGKQQTVMAIATKIALQMNCKMGGELWRVDMPLKLAMIVGIDCYHDTTAGRRSIAGFVASINEGMTRWFSRCVFQDRGQELVDGLKVCLQAALRAWSGCNEYMPSRVIVYRDGVGDGQLKTLVNYEVPQFLDCLKSVGRGYNPRLTVIVVKKRVNARFFAQSGGRLQNPLPGTVIDVEVTRPEWYDFFIVSQAVRSGSVSPTHYNVIYDSSGLKPDHIQRLTYKLCHVYYNWPGVIRVPAPCQYAHKLAFLVGQSIHREPNLSLSNRLYYL
B1 was tested, and the binding was “no binding”.
